The labels stand for the following.
B1: chr17:74307696:74307697:-_ENSG00000161542_ENST00000324684|hu_mus|FALSE|FALSE (ssRNA)
RNA: GGGAGUUCUACAGUCCGACGAUCGUUCCGGAAGAGGUAAGCCAUAGACUCUCCAUUGUGGAUUCUCCGAAUCGCCUCAGAAAGAAUCAGGCUGAUGUCCACAGUCUUUAUCUUGGGACACUGUAGUUUCUGAAGUUCAUGAGGCAACAGAGGAUUGAGCAUCA
B2: chr10:24632488:24632489:+_ENSMUSG00000019984_ENSMUST00000092646|mus_mus|FALSE|FALSE (ssRNA)
RNA: GGGAGUUCUACAGUCCGACGAUCAGGUGCUGGAGACCCGCUGUUGAGGGCCUGGGGUGGCACUGCCGGCUCCAUCUUGCUAAUGUGCGUGAUGAAUCGAAGACGAAGCUUUAAAGCCGGCUUUAAAUUACAGAUAAUCUUCUCCAACAGAGGAUUGAGCAUCA
B3: chr9:44565267:44565268:-_ENSMUSG00000032096_ENSMUST00000034607|mus_hu|motif|central (ssRNA)
RNA: GGGAGUUCUACAGUCCGACGAUCAUUAAUGGGUGGAGCAUGCAUUUUGGUUGCUUCAGAAGUACGCUUGCCCAUACGGGAGGACAUGAUGGUUUCACCUUCAGAUUUUAAUUUGUCCACAAAGUUAUCUACUUCCUUUCCUUUCAACAGAGGAUUGAGCAUCA
B4: chr5:143665172:143665173:-_ENSMUSG00000029580_ENSMUST00000100497|perfect_dup|FALSE|FALSE (ssRNA)
RNA: GGGAGUUCUACAGUCCGACGAUCUUUGGGAGGGUGAGGGACUUCCUGUAACCACUUAUUUCAUGGAUACUUGGAAUGACUAUUAAAAAAAGACAAAACCAAAAAAAAAAAAAAACAAAACAAUGUACAAAGUCCUCAGCCACACAACAGAGGAUUGAGCAUCA
B5: chr11:64571133:64571134:-_ENSG00000133895_ENST00000312049|hu_hu|FALSE|FALSE (ssRNA)
RNA: GGGAGUUCUACAGUCCGACGAUCCUGAAAAAUAAAUCUAUGUACAAAACAGGAAGAGAUCAGGCUCUUGUCACCCACUCCUAACCCUCUGCAGAUUUCCUCCGGGAUGCUCCGAGAUGGGCUGGACCUCUGGGAGGUUCCCAGCAACAGAGGAUUGAGCAUCA
B6: chr2:42509997:42509998:+_ENSG00000143924_ENST00000318522|hu_mus|hu_hu_hu_mus_True|28_68 (ssRNA)
RNA: GGGAGUUCUACAGUCCGACGAUCUCGCUGAGUCCUCUCCUCAUAAUUAAACAGGACUACCACUGAGGCAAUGAAAUAAACUAUCUCCCCUGUGGGAAGCAGGUAUACAUUAGCUCUACAGUCCUUUCCUCGAUAACCGUAUACCAACAGAGGAUUGAGCAUCA
B7: chr1:36752661:36752662:+_ENSG00000054118_ENST00000354618|hu_hu|FALSE|FALSE (ssRNA)
RNA: GGGAGUUCUACAGUCCGACGAUCCCCAGACUGAUACCCGGCACCACUCGGCAGAGUUGAGCCCAUCUGGGAUGUGCUGGAAAGUGGAGGACUAGGUUUUGGCACGGGGCUAGGACGGGGUGACCGCCGCCUCACCACCACAGACAACAGAGGAUUGAGCAUCA
B8: chrX:67713009:67713010:-_ENSMUSG00000073139_ENSMUST00000101506|mus_hu|FALSE|FALSE (ssRNA)
RNA: GGGAGUUCUACAGUCCGACGAUCUAAGGAGAGCAAAAAUAGUGGCUUUAGCUACAUUUUUUACACACUGAGCAGGAAAGUCUAAACCAUCCCGUUCCCCUGUACCCCAAAGAGAACAGGGCUUGCUGGAGGCCAGUGCCAAGGCAACAGAGGAUUGAGCAUCA
B9: 167381320_167381440_1809_CDS_ENSG00000143190_ENST00000367866|human|control|control (ssRNA)
RNA: GGGAGUUCUACAGUCCGACGAUCAAGGGCAGCAGCUGCUGCUGUUUGCAAACCUGAUGCUGUCACCAUCACCUGGCUGGUCCCAAGAGGGGAGGACAAAGGAGUGGAGGUGGUCUGUGUUGUGCUGGUCUCACUGGCACUGGACAACAGAGGAUUGAGCAUCA
B10: chr5:145543945:145543946:-_ENSG00000133706_ENST00000545646|hu_hu|motif|central (ssRNA)
RNA: GGGAGUUCUACAGUCCGACGAUCCUGAAUAGCCAGUGGCGGGAAAUAAUCAAGCCAAUGUUCUGCUUCAGAAAAUUUUACGGUCUCUUCAUCAGACAGGCCAAGGGAUUUCAUAAUGCCCCACUGGUAUUUAGAAGAUCCAGCCAACAGAGGAUUGAGCAUCA
B11: chr2:42509997:42509998:+_ENSG00000143924_ENST00000318522|hu_mus|hu_hu_hu_mus_True|28_88 (ssRNA)
RNA: B6 RNA with C51U, G54U, A69G, G72A
B12: chr3:145257603:145257604:+_ENSMUSG00000074182_ENSMUST00000098534|mus_hu|FALSE|FALSE (ssRNA)
RNA: GGGAGUUCUACAGUCCGACGAUCAUCAAUGUAAGGUUUUAGGAUUUCAUUAAUAGUUUUAUCAUCUGGUACUCUUUUUUCUAUGUACUCAGCUUGACUUUGAGGAAACUGGAGCUUCACAUGCCAACAAAACUGUUGUUUUUUCAACAGAGGAUUGAGCAUCA
B13: 30520229_30521091_787_CDS_ENSG00000126858_ENST00000394692|human|control|control (ssRNA)
RNA: GGGAGUUCUACAGUCCGACGAUCAUCAUCAUAACCAAAUCGUCGAAGCACAGUCCAAGUAGUUUCGUGUCUCCCUCUCUGGAUAAAAAGUGUGUGUAAAAAGAGAAAACCUUUCAGGGUCAACCCACUGUCAGCCACACCAUCCAACAGAGGAUUGAGCAUCA
B14: chr11:118639009:118639010:-_ENSG00000110367_ENST00000264018|hu_mus|motif|central (ssRNA)
RNA: GGGAGUUCUACAGUCCGACGAUCUUCAAGUAAGGGGAUGAGGUAGGCACCGCUUUUGCCUGUUCCAUUUUUUGCUCGGGCGGAGAUAUCCCUACCAGAUAAAGCAAUGGGAAUGCUCUCCUCCUGGAUAGGAGAUGGUUUUUCCAACAGAGGAUUGAGCAUCA
B15: chr11:87793471:87793472:-_ENSMUSG00000020483_ENSMUST00000020775|mus_mus|mus_mus_mus_hu_False|1_1 (ssRNA)
RNA: GGGAGUUCUACAGUCCGACGAUCUGGACUUGAAAAUAAAAGAAUAAGCUGGAUCCCCCACCCCCCCACAUUGUCAACCCUACACGAGAGUUUUGAAGGCGACUCAUGAAAAUCAGCAGCUCAAACGGCAAUGACCACCCACCCCAACAGAGGAUUGAGCAUCA
B16: chr3:183368427:183368428:+_ENSG00000114796_ENST00000454652|hu_hu|FALSE|FALSE (ssRNA)
RNA: GGGAGUUCUACAGUCCGACGAUCAACCAACAUUUCUCGGCUUUCCCUGUGGUCAUUACAAAACAUAGCUCUGAAGUAGCUGCUACAGGCUGAGAGCACAGCUCUAUGGCAAGGAAAUUCUUUUCCUUCCACACAAAUGAUAACCAACAGAGGAUUGAGCAUCA
B17: chr11:51804979:51804980:-_ENSMUSG00000020390_ENSMUST00000020657|mus_hu|motif|central (ssRNA)
RNA: GGGAGUUCUACAGUCCGACGAUCGAUAAAAACCUAACAGUUGGUGGUUUAUUUGGAUAUUCUUCAGAAAAUUCUAUUACGGGUUUAAAAGUACCAUCUUCAAAAGGUGUCCCUUCUGGUCCAAAUAUAACUGCAUUCCACUGCCAACAGAGGAUUGAGCAUCA
B18: chr2:198351390:198351391:-_ENSG00000144381_ENST00000345042|hu_mus|FALSE|FALSE (ssRNA)
RNA: GGGAGUUCUACAGUCCGACGAUCUCAUUCCCACCCUCCACAGAAAGGCUGCUUCUGAACUCUCAUGUGGUGACACAGCGCUACAGUCCUGAUGCUCACAGAACAGUAGAGAUGCCUCAGUGAUUUAAGUUGAAAGCAGGACACCAACAGAGGAUUGAGCAUCA
B19: chr2:172291668:172291669:+_ENSG00000115827_ENST00000375255|hu_hu|FALSE|FALSE (ssRNA)
RNA: GGGAGUUCUACAGUCCGACGAUCAACACUGCUGACACAGCGCCGAUAAUUGUCAAAAUAUAUUCUUCCUCUCUCAUAGGCUAUAGGUGACCUGGAAUGAGUUGUCCAGACAUUCUUAAAUUUAGUACUUUCCUGGCACACCAGCAACAGAGGAUUGAGCAUCA
B20: 112350797_112352857_1905_CDS_ENSG00000108055_ENST00000361804|human|control|control (ssRNA)
RNA: GGGAGUUCUACAGUCCGACGAUCCAGUUUGCUGAUCAUAGGAAUAGCAUCAUUGGUUUCAGGAUAGGCUGUAUCCCUGACAUCUAACUUGUUAAGAGGCAGAAAAGUAACCUCUCCAGGAAGAUUCAUUUUAUUAAACUCCAUCAACAGAGGAUUGAGCAUCA
B21: 43138715_43159018_96_CDS_ENSG00000136448_ENST00000258960|human|control|control (ssRNA)
RNA: GGGAGUUCUACAGUCCGACGAUCCAAACCACCCCGGUUGUAGCUGUUGUCCUCCUCAUUCUCGCAAUCGCUGCAGUGCUCAUGGCCGUUCCCGUUCCCUUCCAUCAUCUGCGGCAGCGGAGGUGCCGGCGGCUUCACUGCUGUCAACAGAGGAUUGAGCAUCA
B22: 48405545_48405665_187_5pUTR_ENSG00000082212_ENST00000321341|human|control|control (ssRNA)
RNA: GGGAGUUCUACAGUCCGACGAUCCCGCGACAGGUGGUACACCCGGCGGAGAGGCCGCGCCCUGCCGCCCGCCCUGGCGAUGCUCAGCUCCCGCGCCGCCCGGCCCUCCCCUUCUGCGAGCCUCCCGGAGCCGCCGUCAGCUCACAACAGAGGAUUGAGCAUCA

Residue numbers refer to the chain shown, from its start. This is one part of the list.

In the assay the target is T1, UNK ZnF1-3 (human, UniProt Q9C0B0 31-174).
T1 sequence: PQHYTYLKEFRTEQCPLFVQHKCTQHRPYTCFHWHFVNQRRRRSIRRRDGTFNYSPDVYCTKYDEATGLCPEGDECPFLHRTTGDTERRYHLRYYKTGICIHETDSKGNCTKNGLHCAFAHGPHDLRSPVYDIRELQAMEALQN
Nature of the assay: nsRBNS (natural sequence RNA bind-n-seq); RBNS binding buffer (assumed for nsRBNS): 25 mM Tris pH 7.5, 150 mM KCl, 3 mM MgCl2, 0.01% Triton X-100, 500 ug/ml BSA, 20 U/ml SUPERase-In, 4 C; UNK is unkempt and MSI1 is Musashi-1; names of the RNAs are library labels; protein concentration not given here; high values mean tight binding.
In turn, B1 showed a binding signal of 0.658 enrichment R.

On to B2, for which the binding signal amounted to 1.06 enrichment R.

Regarding B3, the binding signal turned out to be 0.592 enrichment R.

In turn, B4 had a binding signal of 1.15 enrichment R.

B5 gave a binding signal of 1.21 enrichment R.

Molecule B6 showed a binding signal of 0.926 enrichment R.

B7 displayed a binding signal of 1.73 enrichment R.

Take B8: the binding signal came out at 0.836 enrichment R.

B9 had a binding signal of 1.02 enrichment R.

The molecule B10 displayed a binding signal of 1.49 enrichment R.

B11 had a binding signal of 1.65 enrichment R.

B12: the binding signal stood at 0.503 enrichment R.

The molecule B13 displayed a binding signal of 2.1 enrichment R.

The molecule B14 displayed a binding signal of 0.798 enrichment R.

Molecule B15 displayed a binding signal of 2.28 enrichment R.

The molecule B16 registered a binding signal of 1.22 enrichment R.

B17 displayed a binding signal of 1.1 enrichment R.

The molecule B18 had a binding signal of 1.35 enrichment R.

The molecule B19 registered a binding signal of 1.37 enrichment R.

The molecule B20 gave a binding signal of 1.39 enrichment R.

B21: the binding signal amounted to 0.471 enrichment R.

B22 came in with a binding signal of 1.35 enrichment R.

Source of the values: article PMC12136788.
